# Experimental data published in PubChem BioAssay AID686978 (National Center for Advancing Translational Sciences (NCATS), 2013).
# In all, about 420,000 compounds went through this assay and about 64,000 (15%) were called active. The inconclusive results got no clear call from the source; some entries with a clear call stand among them for comparison. Calls come from the whole dose curve; as a rule, active = well fitted inhibition curve with a large enough effect; inconclusive = small, poorly fitted or top-dose-only effect; inactive = flat fitted curve, though single readings scatter. No potency is given beside an inconclusive call; the fits are too rough.
# Assay: qHTS for Inhibitors of human tyrosyl-DNA phosphodiesterase 1 (TDP1): qHTS in cells in absence of CPT; note: nearly all actives have a fitted effect of over 55% in size
# Details: DT40 Tdp1-/- hTDP1 cells, no CPT, ATP luminescence, 48 h; activity change, negative = growth inhibition: at 46.2 µM (top of the series) unless noted
# In short: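 A cellular qHTS used chicken DT40 cells lacking endogenous Tdp1 but carrying stably transfected human TDP1. Compounds were applied without camptothecin, and cell growth kinetics were judged by ATP-dependent luminescence after ≥48 hr.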
# % is set by controls: 0 for no effect and ±100 for the full control effect; potency is the fitted concentration of half-maximal effect; tags give direction and shape of the fitted curve.
Structure (SMILES),Potency,"activity change, negative = growth inhibition"
Cc1ccc(CCNC(=O)CS(=O)Cc2nc(-c3ccccc3C)oc2C)cc1 (centres undefined),"inconclusive [inhibitor, single point]",
Cc1ccc(NC(=O)c2cc3ccccc3cc2O)cc1,"inconclusive [inhibitor, single point]",
CC12COC3(C(=O)Nc4ccc(Cl)cn4)CC1CCC32C (centres undefined),"inconclusive [inhibitor, partial curve]",
Cc1onc(-c2ccccc2)c1C(=O)Oc1ccccc1,"inconclusive [inhibitor, partial curve]",
c1ccc(CN2CCN(C3=Nc4cccc5cccc3c45)CC2)cc1,"inconclusive [inhibitor, single point]",
COCCNC(=O)COc1ccc(N(C)S(=O)(=O)c2ccc3ccccc3c2)cc1,,inconclusive: -32.9% [inhibitor]
O=C(CSc1nc2c(oc3ccccc32)c(=O)n1Cc1ccco1)Nc1ccccc1Cl,"inconclusive [inhibitor, partial curve]",
COc1ccc(CC(=O)OCC(=O)N2N=C(c3ccccc3)CC2c2ccc(OC)cc2)cc1 (centres undefined),"inconclusive [inhibitor, partial curve, poor fit]",
CC1CCCCC1NC(=O)C1CCCN1S(=O)(=O)c1cccc2nsnc12 (centres undefined),"inconclusive [inhibitor, single point]",
CCN(Cc1ccccc1)S(=O)(=O)c1ccc(C(=O)N(CCCN(C)C)c2nc3cc(C)cc(C)c3s2)cc1,active: 11.6 µM,
CCN(CC)C(=O)C1=C(C)N(CCCOC)C(=O)C(CC(=O)NC2CCCC2)C1 (centres undefined),,inactive: 1.86%
CC1C(=O)C(C)C(c2ccccc2)N(N=O)C1c1ccccc1 (centres undefined),"inconclusive [inhibitor, single point]",
CN(C)c1ccc(/C=C/c2ccc3cc(N(C)C)ccc3n2)cc1,"inconclusive [inhibitor, single point]",
CN(C(=O)COC(=O)c1cccnc1Nc1ccccc1F)C1CCS(=O)(=O)C1 (centres undefined),"inconclusive [inhibitor, single point]",
CCOC(=O)C(C)Sc1nnc(-c2ccccc2O)n1-c1ccc(C)cc1 (centres undefined),"inconclusive [inhibitor, single point]",
COc1ccc(C2=NOC(Cn3nc(C(=O)NCc4cccc(C(F)(F)F)c4)cc3-c3ccccc3)C2)cc1 (centres undefined),"inconclusive [inhibitor, single point]",
O=C(Cn1cnc2c(oc3ccccc32)c1=O)Nc1ccc(F)cc1F,,inactive: -14.6%
Cc1ccc(OCCC(=O)N(CCC(C)C)c2c(N)n(Cc3ccccc3)c(=O)[nH]c2=O)cc1,active: 20.6 µM,
CN(C)CCN1C(=O)c2cccc3cc([N+](=O)[O-])cc(c23)C1=O,active: 0.259 µM,
CCc1ccc(OCc2nc(-c3ccc(OC)cc3)no2)c(Br)c1,"inconclusive [inhibitor, single point]",
COc1ccc(-c2nn(-c3ccccc3)cc2C2CC(c3cccs3)=NN2C(=O)CCC(=O)O)cc1 (centres undefined),"inconclusive [inhibitor, partial curve]",
COc1ccc(/C=N/NC(=O)CCn2c3ccccc3c3ccccc32)cc1OC,,inconclusive: -30.1% [inhibitor]

Structure (SMILES),Potency,"activity change, negative = growth inhibition"
CCN(CC)S(=O)(=O)c1cc(NC(=O)CSCc2c(C)noc2C)ccc1C,"inconclusive [inhibitor, single point]",
CCC(=O)Nc1nnc(-c2ccc(OC)cc2)o1,,inactive: -17.4%
CCOC(=O)C1=C(O)/C(=C/c2ccc(OCC(=O)O)c(OCC)c2)SC1=Nc1ccc(OC)cc1,,inactive: -21.2%
Cc1ccc(/C(N)=N/OC(=O)c2cccc(Cn3cc(C(F)(F)F)ccc3=O)c2)cc1,active: 18.4 µM,
CCOc1ccc(NS(=O)(=O)c2ccc(C(=O)NCC(c3ccco3)N3CCCC3)cc2)cc1 (centres undefined),"inconclusive [inhibitor, single point]",
COc1ccc2c(c1)Cc1c-2cc(Br)c(N)c1Br,"inconclusive [inhibitor, single point]",
CC(C)OC(=O)/C(=C\c1cccc2ccccc12)NC(=O)c1ccccc1,"inconclusive [inhibitor, single point]",
S=C(NCCc1ccc(Cl)cc1)NCc1ccco1,,inactive: -18.5%
O=C(Nc1ccc2c(c1)nc1n2CCN(C2CCCCC2)C1)c1ccco1,"inconclusive [inhibitor, partial curve]",
Cc1ccc(Cn2c(=N)n(CC(O)c3ccco3)c3ccccc32)cc1 (centres undefined),active: 16.4 µM,
CC(C)(C)c1ccc(/C=C2/SC(N3CCCC3)=NC2=O)cc1,"inconclusive [inhibitor, single point]",
CC(C)(CO)CNc1ccn2nccc2n1,"inconclusive [inhibitor, partial curve]",
Cc1ccc(N2CCN(CC(O)COC3CCCCC3)CC2)cc1 (centres undefined),"inconclusive [inhibitor, partial curve, poor fit]",
Cc1cc(C)cc(OCc2nc3ncc(Br)cc3[nH]2)c1,active: 2.31 µM,
O=C(NCCN1CCN(c2ccccc2)CC1)Nc1ccccc1Cl,,inconclusive: -30.1% [inhibitor]
COc1cccc(-n2c(SCC(=O)NCCc3ccccc3)nnc2-c2ccoc2C)c1,"inconclusive [inhibitor, single point]",
CCOc1ccc(C2C(=O)N(C3CCCCCC3)CC(=O)N2CCc2ccc(OC)c(OC)c2)cc1OC (centres undefined),"inconclusive [inhibitor, single point]",
CCC(=O)N1CCN(c2ccc(NC(=O)c3ccco3)cc2Cl)CC1,,inactive: -10.3%
O=C(O)CC(CC(=O)N1CCOCC1)c1ccccc1 (centres undefined),,inactive: -6.6%
CCCCCCCCNC(=O)c1cccnc1SCC(=O)Nc1ccc(OC)cc1OC,active: 20.6 µM,
COc1ccc(-n2c(SCC(=O)Nc3sc4c(c3C#N)CCCC4)nnc2-c2ccc(O)cc2)cc1,,inactive: 10.1%
Cc1c(Cl)cccc1Nc1ncccc1C(=O)O,"inconclusive [inhibitor, partial curve, poor fit]",
